# From the supplement of paper PMC8728848
# This is one part of the list.
# B1: cupB6 (Pseudomonas aeruginosa), Q02SP7 (protein)
# chain: MSMRLFPGRVSLRRRPGAQARQALVLGLCCLTGGQAWALNEVALNCSFGNGKGLPWRVVNELTSGTAKGTVLFARPVSLFLSYKPQASQEAHELVLGGNWSGVGYPGPYGTVASDVKGIGYRISVDAQDGVKRVIPVDNQPHALDKRVTSFSGSTTSDYLQELVLTVDPGELPAGDLKVTSVSGSATLNLWAVDRLKGEASIGSVLAVPADNYPTGVCRKPYSLIGPASIAIGGGPPPPPIPKKCKVEVGREINVKLGSVALKNFPRVNDTSTERSFDISLSECAALAKPEIAFRDKYVSAQQADPTILSLKSGGAAGFGIVVKNGLDQQRIRFDGTPYPMRRVGDSADLPLSAAYIRIGAEGELKAGVADGAAEFTFTFP
# Key:
# Assay in all cases: glycan array binding signal (z-score within array); higher = stronger binding
# Conditions in all cases: glycan notation: IUPAC condensed, linker removed
# [1] = target: GlcNAc6S(b1-3)Gal(b1-4)GlcNAc
# How it was run: (§1)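 Glycan array binding is given as a within-array Z-score, which can be read as non-binding when negative. The arrays, 3228 of them, came from the Consortium for Functional Glycomics database and were retained only where the protein sequence was available. Z-scores were averaged across arrays of the same protein sequence at different concentrations or buffers and across linkers.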
# [2] = target: Kdn(a2-3)Gal(b1-3)GalNAc
# How it was run: as §1
# [3] = target: Kdn(a2-3)Gal(b1-3)GlcNAc
# How it was run: as §1
# [4] = target: Kdn(a2-3)Gal(b1-4)Glc
# How it was run: as §1
# [5] = target: Kdn(a2-3)Gal(b1-4)GlcNAc
# How it was run: as §1
# [6] = target: Kdn(a2-3)Gal(b1-4)[Fuc(a1-3)]GlcNAc
# How it was run: as §1
# [7] = target: Kdn(a2-6)Gal(b1-4)GlcNAc
# How it was run: as §1
# [8] = target: Man(a1-2)Man(a1-2)Man(a1-3)Man
# How it was run: as §1
# [9] = target: Man(a1-2)Man(a1-2)Man(a1-6)[Man(a1-3)]Man
# How it was run: as §1
# [10] = target: Man(a1-2)Man(a1-3)Man
# How it was run: as §1
# [11] = target: Man(a1-2)Man(a1-3)[Man(a1-2)Man(a1-6)]Man
# How it was run: as §1
# [12] = target: Man(a1-2)Man(a1-3)[Man(a1-2)Man(a1-6)]Man(a1-6)[Man(a1-2)Man(a1-2)Man(a1-3)]Man
# How it was run: as §1
# [13] = target: Man(a1-2)Man(a1-3)[Man(a1-2)Man(a1-6)]Man(a1-6)[Man(a1-2)Man(a1-2)Man(a1-3)]Man(b1-4)GlcNAc(b1-4)GlcNAc
# How it was run: as §1
# [14] = target: Man(a1-2)Man(a1-3)[Man(a1-6)]Man(a1-6)[Man(a1-2)Man(a1-3)]Man(b1-4)GlcNAc(b1-4)GlcNAc
# How it was run: as §1
# [15] = target: Man(a1-2)Man(a1-6)[Man(a1-3)]Man(a1-6)[Man(a1-2)Man(a1-2)Man(a1-3)]Man
# How it was run: as §1
# [16] = target: Man(a1-2)Man(a1-6)[Man(a1-3)]Man(a1-6)[Man(a1-2)Man(a1-2)Man(a1-3)]Man(b1-4)GlcNAc(b1-4)GlcNAc
# How it was run: as §1
# [17] = target: Man(a1-3)[Man(a1-6)]Man
# How it was run: as §1
# [18] = target: Man(a1-3)[Man(a1-6)]Man(a1-6)[Man(a1-2)Man(a1-3)]Man(b1-4)GlcNAc(b1-4)GlcNAc
# How it was run: as §1
# [19] = target: Man(a1-3)[Man(a1-6)]Man(a1-6)[Man(a1-3)]Man
# How it was run: as §1
# [20] = target: Man(a1-3)[Man(a1-6)]Man(a1-6)[Man(a1-3)]Man(b1-4)GlcNAc(b1-4)GlcNAc
# How it was run: as §1
# [21] = target: Man(a1-3)[Man(a1-6)]Man(b1-4)GlcNAc(b1-4)GlcNAc
# How it was run: as §1
# [22] = target: Man(a1-6)Man
# How it was run: as §1
# [23] = target: Man(b1-4)GlcNAc
# How it was run: as §1
# [24] = target: Neu5Ac(a2-3)Gal
# How it was run: as §1
# [25] = target: Neu5Ac(a2-3)Gal(b1-3)GalNAc
# How it was run: as §1
# [26] = target: Neu5Ac(a2-3)Gal(b1-3)GalNAc(b1-3)Gal(a1-4)Gal(b1-4)Glc
# How it was run: as §1
# [27] = target: Neu5Ac(a2-3)Gal(b1-3)GalNAc(b1-4)[Neu5Ac(a2-3)]Gal(b1-4)Glc
# How it was run: as §1
# [28] = target: Neu5Ac(a2-3)Gal(b1-3)GalNAc6S
# How it was run: as §1
# [29] = target: Neu5Ac(a2-3)Gal(b1-3)GlcNAc
# How it was run: as §1
# [30] = target: Neu5Ac(a2-3)Gal(b1-3)GlcNAc(b1-2)Man(a1-3)[Neu5Ac(a2-3)Gal(b1-3)GlcNAc(b1-2)Man(a1-6)]Man(b1-4)GlcNAc(b1-4)GlcNAc
# How it was run: as §1
# [31] = target: Neu5Ac(a2-3)Gal(b1-3)GlcNAc(b1-3)Gal(b1-3)GlcNAc
# How it was run: as §1
# [32] = target: Neu5Ac(a2-3)Gal(b1-3)GlcNAc(b1-3)Gal(b1-4)GlcNAc
# How it was run: as §1
# [33] = target: Neu5Ac(a2-3)Gal(b1-3)GlcNAc(b1-3)GalNAc
# How it was run: as §1
# [34] = target: Neu5Ac(a2-3)Gal(b1-3)GlcNAc6S
# How it was run: as §1
# [35] = target: Neu5Ac(a2-3)Gal(b1-3)[Fuc(a1-4)]GlcNAc
# How it was run: as §1
# [36] = target: Neu5Ac(a2-3)Gal(b1-3)[Fuc(a1-4)]GlcNAc(b1-3)Gal(b1-3)[Fuc(a1-4)]GlcNAc
# How it was run: as §1
# [37] = target: Neu5Ac(a2-3)Gal(b1-3)[Fuc(a1-4)]GlcNAc(b1-3)Gal(b1-4)[Fuc(a1-3)]GlcNAc
# How it was run: as §1
# [38] = target: Neu5Ac(a2-3)Gal(b1-3)[Neu5Ac(a2-3)Gal(b1-4)]GlcNAc
# How it was run: as §1
# [39] = target: Neu5Ac(a2-3)Gal(b1-3)[Neu5Ac(a2-6)]GalNAc
# How it was run: as §1
# [40] = target: Neu5Ac(a2-3)Gal(b1-4)Glc
# How it was run: as §1
# [41] = target: Neu5Ac(a2-3)Gal(b1-4)GlcNAc
# How it was run: as §1
# [42] = target: Neu5Ac(a2-3)Gal(b1-4)GlcNAc(b1-2)Man(a1-3)[GlcNAc(b1-2)Man(b1-4)GlcNAc(b1-2)Man(a1-6)]Man(b1-4)GlcNAc(b1-4)GlcNAc
# How it was run: as §1
# [43] = target: Neu5Ac(a2-3)Gal(b1-4)GlcNAc(b1-2)Man(a1-3)[Neu5Ac(a2-6)Gal(b1-4)GlcNAc(b1-2)Man(a1-6)]Man(b1-4)GlcNAc(b1-4)GlcNAc
# How it was run: as §1
# [44] = target: Neu5Ac(a2-3)Gal(b1-4)GlcNAc(b1-3)Gal(b1-3)GlcNAc
# How it was run: as §1
# [45] = target: Neu5Ac(a2-3)Gal(b1-4)GlcNAc(b1-3)Gal(b1-4)GlcNAc
# How it was run: as §1
# [46] = target: Neu5Ac(a2-3)Gal(b1-4)GlcNAc(b1-3)Gal(b1-4)GlcNAc(b1-3)Gal(b1-4)GlcNAc
# How it was run: as §1
# [47] = target: Neu5Ac(a2-3)Gal(b1-4)GlcNAc(b1-3)Gal(b1-4)[Fuc(a1-3)]GlcNAc
# How it was run: as §1
# [48] = target: Neu5Ac(a2-3)Gal(b1-4)GlcNAc(b1-3)GalNAc
# How it was run: as §1
# [49] = target: Neu5Ac(a2-3)Gal(b1-4)GlcNAc(b1-6)[Gal(b1-3)]GalNAc
# How it was run: as §1
# [50] = target: Neu5Ac(a2-3)Gal(b1-4)GlcNAc(b1-6)[Neu5Ac(a2-3)Gal(b1-3)]GalNAc
# How it was run: as §1
# [51] = target: Neu5Ac(a2-3)Gal(b1-4)GlcNAc6S
# How it was run: as §1
# [52] = target: Neu5Ac(a2-3)Gal(b1-4)[Fuc(a1-3)]GlcNAc
# How it was run: as §1
# [53] = target: Neu5Ac(a2-3)Gal(b1-4)[Fuc(a1-3)]GlcNAc(b1-3)Gal
# How it was run: as §1
# [54] = target: Neu5Ac(a2-3)Gal(b1-4)[Fuc(a1-3)]GlcNAc(b1-3)Gal(b1-4)GlcNAc
# How it was run: as §1
# [55] = target: Neu5Ac(a2-3)Gal(b1-4)[Fuc(a1-3)]GlcNAc(b1-3)Gal(b1-4)[Fuc(a1-3)]GlcNAc(b1-3)Gal(b1-4)[Fuc(a1-3)]GlcNAc
# How it was run: as §1
binder,measurement,setting,value
B1,glycan array binding signal (z-score),[1],0.235
same,glycan array binding signal (z-score),[2],0.205
same,glycan array binding signal (z-score),[3],-0.105
same,glycan array binding signal (z-score),[4],0.27
same,glycan array binding signal (z-score),[5],-0.135
same,glycan array binding signal (z-score),[6],0.086
same,glycan array binding signal (z-score),[7],0.199
same,glycan array binding signal (z-score),[8],0.118
same,glycan array binding signal (z-score),[9],-0.141
same,glycan array binding signal (z-score),[10],0.328
same,glycan array binding signal (z-score),[11],-0.048
same,glycan array binding signal (z-score),[12],0.065
same,glycan array binding signal (z-score),[13],-0.203
same,glycan array binding signal (z-score),[14],0.006
same,glycan array binding signal (z-score),[15],-0.17
same,glycan array binding signal (z-score),[16],-0.157
same,glycan array binding signal (z-score),[17],-0.156
same,glycan array binding signal (z-score),[18],-0.118
same,glycan array binding signal (z-score),[19],-0.087
same,glycan array binding signal (z-score),[20],-0.11
same,glycan array binding signal (z-score),[21],-0.032
same,glycan array binding signal (z-score),[22],-0.285
same,glycan array binding signal (z-score),[23],-0.106
same,glycan array binding signal (z-score),[24],-0.176
same,glycan array binding signal (z-score),[25],-0.101
same,glycan array binding signal (z-score),[26],-0.167
same,glycan array binding signal (z-score),[27],0.058
same,glycan array binding signal (z-score),[28],-0.23
same,glycan array binding signal (z-score),[29],-0.118
same,glycan array binding signal (z-score),[30],-0.044
same,glycan array binding signal (z-score),[31],0.048
same,glycan array binding signal (z-score),[32],-0.113
same,glycan array binding signal (z-score),[33],-0.04
same,glycan array binding signal (z-score),[34],-0.067
same,glycan array binding signal (z-score),[35],-0.058
same,glycan array binding signal (z-score),[36],0.124
same,glycan array binding signal (z-score),[37],-0.153
same,glycan array binding signal (z-score),[38],-0.26
same,glycan array binding signal (z-score),[39],0.048
same,glycan array binding signal (z-score),[40],-0.146
same,glycan array binding signal (z-score),[41],0.123
same,glycan array binding signal (z-score),[42],0.007
same,glycan array binding signal (z-score),[43],-0.034
same,glycan array binding signal (z-score),[44],-0.03
same,glycan array binding signal (z-score),[45],-0.044
same,glycan array binding signal (z-score),[46],-0.134
same,glycan array binding signal (z-score),[47],-0.157
same,glycan array binding signal (z-score),[48],-0.119
same,glycan array binding signal (z-score),[49],-0.006
same,glycan array binding signal (z-score),[50],0.129
same,glycan array binding signal (z-score),[51],-0.163
same,glycan array binding signal (z-score),[52],-0.081
same,glycan array binding signal (z-score),[53],-0.184
same,glycan array binding signal (z-score),[54],0.009
same,glycan array binding signal (z-score),[55],-0.235
